{"source": "PubChem BioAssay (NCATS)", "note": "The shares of active, inactive and inconclusive entries below differ from those in the screen. Potencies beside an inconclusive call are fits to weak or partial responses and may not hold up. Calls of active or inactive are those of the source. Calls follow the shape of the dose curve; as a rule, active = well fitted cell-killing curve with a large enough effect; inconclusive = small, poorly fitted or top-dose-only effect, or effect the other way; inactive = no such curve, though single readings can be large or run the other way. Potency is read from the fitted curve at half-maximal effect; tags tell the direction and shape of the fitted curve.", "data": [{"assay": "Viability qHTS for spleen associated tyrosine kinase inhibitor (SYKi) naive MV4-11 cells (AID 1963823); also: nearly all actives have a fitted effect of over 40% in size", "settings": "MV4-11 AML viability, CellTiter-Glo luminescence, 72 h; series mostly up to 45 µM; viability (% of control): at the top concentration", "outline": "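SYKi-naive MV4-11 AML cells, 500 per well, were exposed to library compounds for 72 hr at 37 C, 5% CO2. Viability was then read by CellTiter-Glo luminescence after 10 min at room temperature.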", "values": [{"smiles": "CC1(C)C(=O)N(c2ccc(C#N)c(C(F)(F)F)c2)C(=S)N1c1ccc(C(N)=O)c(F)c1", "Potency": "inconclusive: 23.1 µM [cytotoxic, partial curve]"}, {"smiles": "CC(=O)OC[C@]12C[C@H](O)C(C)=C[C@H]1O[C@@H]1[C@H](O)[C@@H](O)[C@@]2(C)[C@]12CO2", "Potency": "inconclusive: 0.404 µM [cytotoxic, full curve]"}, {"smiles": "CC[C@@H](C)[C@H]1C(=O)O[C@H](C(C)C)C(=O)N(C)[C@@H](C(C)C)C(=O)O[C@H](C(C)C)C(=O)N(C)[C@@H](C(C)C)C(=O)O[C@H](C(C)C)C(=O)N1C", "Potency": "active: 5.44 µM"}, {"smiles": "O=C1N[C@@H](Cc2ccccc2)CN2CCCC[C@@H]12", "viability (% of control)": "inactive: 72.2%"}, {"smiles": "CCCCCCCCCCCC[N+](C)(C)CCOc1ccccc1", "Potency": "active: 2.66 µM"}, {"smiles": "O=C(O)c1nn(Cc2ccc(Cl)cc2Cl)c2ccccc12", "Potency": "inactive"}, {"smiles": "CCN(Cc1ccc(Cl)nc1)/C(=C/[N+](=O)[O-])NC", "viability (% of control)": "inactive: 84.8%"}, {"smiles": "C=C(C)[C@H]1O[C@H]2CC[C@@]3(C)[C@@](O)(CC[C@H]4[C@@H]5OC(C)(C)[C@H]6C[C@@H]7C(=C)Cc8c(Cl)cc9[nH]c(c5c9c8[C@@]76O)[C@@]43C)[C@]23O[C@@H]3[C@H]1O", "Potency": "inconclusive: 8.62 µM [cytotoxic, single point]"}, {"smiles": "CCC(C)C1NC(=O)C2CCCN2C(=O)C(CC(C)C)OC(=O)CCNC(=O)C(C)N(C)C(=O)C(C(C)C)N(C)C1=O", "note": "(configuration not stated)", "Potency": "inconclusive: 9.68 µM [cytotoxic, single point]"}, {"smiles": "CCN[C@H](C)Cc1cccc(C(F)(F)F)c1", "viability (% of control)": "inactive: 69.9% [at 91.9 µM]"}, {"smiles": "O=C1NC(=O)c2c1c1c3ccccc3[nH]c1c1[nH]c3ccccc3c21", "Potency": "inconclusive: 0.0731 µM [cytotoxic, full curve]"}, {"smiles": "NCCc1cc(O)c(O)cc1O", "viability (% of control)": "inactive: 69.2%"}, {"smiles": "C[C@@H](CN1CCC2(CC1)C(=O)NCN2c1cccc(F)c1)NC(=O)c1ccc(Br)cc1", "Potency": "active: 16.4 µM"}, {"smiles": "CN1C(=O)[C@@H](Cc2c[nH]c3ccccc23)N=C(c2ccccc2F)c2ccccc21", "Potency": "active: 20.6 µM"}, {"smiles": "C#CCO[C@H]1CN2CCC1CC2", "Potency": "inconclusive: 8.2 µM [cytotoxic, partial curve, poor fit]"}, {"smiles": "C[C@]12CC[C@@H](O[C@@H]3O[C@H](CO)[C@@H](O)[C@H](O)[C@H]3O)C[C@@]1(O)CCC1C2CC[C@]2(C)[C@@H](C3=CC(=O)OC3)CC[C@]12O", "note": "(some centres not stated)", "Potency": "inconclusive: 0.0893 µM [cytotoxic, full curve]"}, {"smiles": "CN(C)CCc1c[nH]c2cccc(O)c12", "Potency": "inconclusive: 67.9 µM [cytotoxic, single point]"}]}]}
